# Assay results reported in PubChem BioAssay AID588342 (National Center for Advancing Translational Sciences (NCATS), 2011).
# Screen size: about 360,000 compounds; about 25,000 (6.9%) were called active. Inconclusive results, whose numbers are uncertain, are shown with a selection of clear calls. Calls follow the shape of the dose curve; as a rule, active = well fitted inhibition curve with a large enough effect; inconclusive = small, poorly fitted or top-dose-only effect; inactive = flat fitted curve, though single readings scatter. Where the call is inconclusive, the potency comes from a doubtful curve fit.
# Biological target: Luciferin 4-monooxygenase (Photinus pyralis) (UniProt P08659)
# Sequence of UniProt P08659 (P08659 whole entry, looked up): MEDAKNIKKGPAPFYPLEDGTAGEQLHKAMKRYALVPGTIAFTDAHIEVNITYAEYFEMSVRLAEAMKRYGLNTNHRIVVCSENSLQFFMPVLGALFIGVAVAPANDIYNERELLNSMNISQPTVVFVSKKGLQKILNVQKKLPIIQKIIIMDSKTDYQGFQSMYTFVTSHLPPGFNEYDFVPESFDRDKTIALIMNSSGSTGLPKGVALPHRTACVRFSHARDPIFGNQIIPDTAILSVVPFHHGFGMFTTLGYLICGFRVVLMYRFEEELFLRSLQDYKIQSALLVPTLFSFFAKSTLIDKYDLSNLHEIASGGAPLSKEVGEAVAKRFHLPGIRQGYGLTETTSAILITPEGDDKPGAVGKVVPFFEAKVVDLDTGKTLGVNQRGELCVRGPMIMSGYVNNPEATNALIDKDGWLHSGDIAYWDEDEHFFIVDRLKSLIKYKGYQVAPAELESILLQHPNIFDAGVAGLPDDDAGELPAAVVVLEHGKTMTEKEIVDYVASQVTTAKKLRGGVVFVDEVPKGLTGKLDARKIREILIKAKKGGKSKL
# Assay: qHTS profiling assay for firefly luciferase inhibitor/activator using purifed enzyme and Km concentrations of substrates (counterscreen for miR-21 project); also: nearly all actives have a fitted effect of over 55% in size
# Conditions: purified FLuc, luminescence inhibition; series mostly up to 57.5 µM
# How it was run: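 Purified P. pyralis luciferase (10nM final) with 10uM D-luciferin and 10uM ATP (Km levels) in 50mM Tris acetate pH 7.5, 10mM Mg acetate, 0.01% Tween-20, 0.05% BSA; qHTS 6-point titration, ~60 µM downward; luminescence read.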
# Potency is read from the fitted curve at half-maximal effect; tags tell the direction and shape of the fitted curve.
row,SMILES,Potency
1,O=C(CSc1nnc(NC(=O)c2ccco2)s1)Nc1ccccc1Cl,"inconclusive: 26.9 µM [inhibitor, single point]"
2,COc1ccc(Br)cc1/C=N/NC(=O)c1nc(-c2ccccc2)n2c1CCCCC2,inactive
3,OCCC1CN(Cc2ccc(-c3ccco3)cc2)CCN1Cc1ccsc1 (stereo unspecified),inactive
4,O=C(Cc1cccs1)N/N=C/C=C/c1ccco1,"inconclusive: 26.9 µM [inhibitor, single point]"
5,C#CC(C)(CC)NC(=O)c1cnn2c(C(F)F)cc(-c3ccccc3OC)nc12 (stereo unspecified),inactive
6,CC(=O)N1c2ccc(S(=O)(=O)N3CCC(C(=O)Nc4cccc(C)c4)CC3)cc2CC1C (stereo unspecified),inactive
7,COc1ccc(-c2nc(-c3cccs3)c(-c3cccs3)[nH]2)cc1OC,"inconclusive: 23.9 µM [inhibitor, single point]"
8,CCOC(=O)CSc1nc2sc3c(c2c(=O)[nH]1)CC(C)(CC)OC3 (stereo unspecified),inactive
9,CS(=O)(=O)c1ccc2nc(NC(=O)c3ccc(NS(=O)(=O)c4ccc(F)c(F)c4)cc3)sc2c1,"inconclusive: 8.49 µM [inhibitor, partial curve]"
10,Oc1ccc(Br)cc1CNc1ccccn1,"inconclusive: 37.9 µM [inhibitor, single point]"
11,COc1ccc(C(=O)CSc2nnc(CNC(=O)c3ccc(S(=O)(=O)N(C)C)cc3)o2)cc1,inactive
12,O=C(COc1ccc(F)cc1Cl)Nc1ccc(S(=O)(=O)Nc2nccs2)cc1,"inconclusive: 37.9 µM [inhibitor, partial curve, poor fit]"
13,O=C(Cc1ccccc1)NCc1ccncc1,"inconclusive: 30.1 µM [inhibitor, partial curve, poor fit]"
14,O=C(NC1CCCCC1)N1CCC(c2nc3ccc(Cl)cc3[nH]2)CC1,"inconclusive: 21.3 µM [inhibitor, partial curve, poor fit]"
15,COc1cccc(C(=O)Nc2cc(C)c3c(=O)oc4ccccc4c3n2)c1,"inconclusive: 26.9 µM [inhibitor, single point]"
16,COc1ccc(NC(=O)c2sc3nc(C)c(C(=O)Nc4ccc(C)cc4C)c(-c4ccc(C)o4)c3c2N)cc1,inactive
17,Cc1ccc(Nc2nc(C)cc(C)n2)c(C(=O)O)c1,"inconclusive: 16.9 µM [inhibitor, partial curve]"
18,CSCCNC(=O)c1ccc(C(C)(C)C)cc1,active: 3.01 µM
19,CC(C)(C)Cc1nnc(NC(=O)c2ccc3c(c2)OCO3)s1,"inconclusive: 2.39 µM [inhibitor, partial curve, poor fit]"
20,Cc1c(NC(=S)NC(=O)c2cc3ccccc3o2)cccc1C(=O)O,"inconclusive: 6.75 µM [inhibitor, single point]"
21,CCc1ccc(NC(=O)CN2C(=O)C3(SCC(=O)N3c3ccccc3)c3ccccc32)cc1 (stereo unspecified),"inconclusive: 19 µM [inhibitor, partial curve, poor fit]"
22,O=C(NC(=S)N1CCN(Cc2ccccc2)CC1)c1cccnc1,inactive
23,CCN1CCN(C(=O)c2cc3cc4ccc(OC)cc4nc3s2)CC1,"inconclusive: 37.9 µM [inhibitor, partial curve, poor fit]"
24,CCOC(=O)c1cc(-c2ccc3c(c2)OCO3)nc2onc(C)c12,inactive

row,SMILES,Potency
1,COc1cccc(/C=N/NC(=O)NC2CCCCC2)c1O,active: 16.9 µM
2,COc1ccc(N2CCN(C(=O)c3ccc4c(c3)[nH]c(=S)n3c5ccccc5nc43)CC2)cc1,"inconclusive: 23.9 µM [inhibitor, partial curve]"
3,CCc1nnc(NC(=O)[C@@H](NC(=O)c2cccc(S(=O)(=O)N(CC)CC)c2)C(C)C)s1,inactive
4,CCc1cccc(NC(=O)Nc2csc3c2CCCC3)c1,"inconclusive: 8.49 µM [inhibitor, full curve]"
5,CCN(CC)C(=O)c1cc2c(=O)c3cc(Cl)ccc3oc2nc1C,"inconclusive: 37.9 µM [inhibitor, partial curve, poor fit]"
6,O=C(OCC(=O)C12CC3CC(CC(C3)C1)C2)c1ccc(O)cc1O,active: 19 µM
7,CCc1cc(CNC(=O)C2CCC(=O)N(Cc3ccc(Cl)cc3)C2)on1 (stereo unspecified),inactive
8,O=C(CSc1ccccc1)Nc1nnc(COc2ccc(Cl)cc2)s1,"inconclusive: 26.9 µM [inhibitor, partial curve, poor fit]"
9,CSc1ncccc1C(=O)NCc1ccc(C)cc1,inactive
10,CCCCOc1ccc(C(=O)Nc2ccc(-c3nc4ccccc4s3)cc2C)cc1,inactive
11,CCOC(=O)CCc1c(C)c2ccc(OC3CCCCC3=O)c(C)c2oc1=O (stereo unspecified),"inconclusive: 26.9 µM [inhibitor, partial curve, poor fit]"
12,Cc1ccc(-n2c(COc3ccccc3)n[nH]c2=S)cc1,"inconclusive: 37.9 µM [inhibitor, partial curve, poor fit]"
13,O=C1C2C(C(=O)N1/N=C/c1cc(Br)cc([N+](=O)[O-])c1O)C1C=CC2C12CC2 (stereo unspecified),"inconclusive: 23.9 µM [inhibitor, single point]"
14,CC(Cc1cccs1)NC(=O)NC1CCCCC1 (stereo unspecified),"inconclusive: 26.9 µM [inhibitor, partial curve]"
15,O=C(O)CN1C(=O)/C(=C\c2cccc(OCc3ccc(Cl)cc3)c2)SC1=S,"inconclusive: 23.9 µM [inhibitor, single point]"
16,Cc1ccc(C)c(N2C(=O)N(Cc3cc(=O)n4ccccc4n3)c3ccccc3S2(=O)=O)c1,inactive
17,CCOC(=O)c1c(C)oc2ncnc(Nc3ccc(OCC)cc3)c12,inactive
18,COC(=O)c1ccc2ncccc2c1,"inconclusive: 26.9 µM [inhibitor, partial curve, poor fit]"
19,CCCCOc1ccc(C(=O)CCN2CCOCC2)cc1,"inconclusive: 30.1 µM [inhibitor, partial curve, poor fit]"
20,CCCn1c(-c2ccc(S(=O)(=O)N3CCOCC3)cc2)csc1=Nc1ccc(OCC)cc1,inactive
21,O=C(OCC(=O)N1CCCCC1)c1n[nH]c(=O)c2ccccc12,"inconclusive: 33.8 µM [inhibitor, partial curve, poor fit]"
22,Cc1c(C(=O)Nc2nnc(C3CC3)s2)oc2ccccc12,active: 4.78 µM
23,O=C1c2ccccc2C(O)N1c1ccc(Cl)cc1 (stereo unspecified),"inconclusive: 37.9 µM [inhibitor, partial curve, poor fit]"
24,Cc1ccc(NC(=S)Nc2ccc3cn[nH]c3c2)cc1,"inconclusive: 37.9 µM [inhibitor, partial curve, poor fit]"

row,SMILES,Potency
1,COc1ccc(-c2cc(-c3ccc(OC)cc3)c(C#N)c(SC)n2)cc1,inactive
2,CCCn1c(C)cc(C(=O)COC(=O)c2cc(S(=O)(=O)NCC(C)C)c(Cl)cc2Cl)c1C,active: 9.53 µM
3,CC(=O)Nc1ccc(S(=O)(=O)Nc2ccc(Nc3ccccc3)cc2)cc1,inactive
4,COc1ccc(/C=N/NC(=O)/C(=C/c2ccccc2)CCO)cc1,"inconclusive: 30.1 µM [inhibitor, single point]"
5,COc1ccc(-c2nnc(SCC(=O)N3CCCC(C)C3)o2)c(OC)c1 (stereo unspecified),"inconclusive: 26.9 µM [inhibitor, single point]"
6,O=C(Nc1cccc(S(=O)(=O)N2CCCCC2)c1)c1ccc(N2CCCC2=O)cc1,"inconclusive: 5.36 µM [inhibitor, single point]"
7,COc1ccc(Nc2nnc(SCC(=O)N3CCCC3)s2)cc1,active: 16.9 µM
8,O=C(Nc1ccccc1)N1CCN(c2cccc(C(F)(F)F)c2)CC1,inactive
9,O=C(Nc1nc2c(cc3c4c(cccc42)CC3)s1)c1ccccc1Cl,"inconclusive: 15.1 µM [inhibitor, partial curve, poor fit]"
10,O=C(COC(=O)c1cccs1)NC1CCCCC1,active: 21.3 µM
11,CCOC(=O)c1cc2c(nc1NC(=S)NCc1ccccc1)CCCC2,"inconclusive: 6.75 µM [inhibitor, partial curve, poor fit]"
12,Cc1cc(/C=N/NC(=O)Cn2c3ccccc3c(=O)c3ccccc32)c(C)n1-c1ccccc1,"inconclusive: 10.7 µM [inhibitor, partial curve]"
13,COc1ccc(NC(=O)O/N=C/c2ccccc2Cl)cc1,active: 30.1 µM
14,COc1ccc(C(=O)NC(=S)Nc2ccc(Cl)c(C(=O)O)c2)cc1,"inconclusive: 30.1 µM [inhibitor, single point]"
15,Cc1cccc(NC(=O)Cc2cccs2)n1,"inconclusive: 26.9 µM [inhibitor, partial curve, poor fit]"
16,CCOc1ccc2ccccc2c1/C=N/NC(=O)c1cc(C)[nH]n1,"inconclusive: 37.9 µM [inhibitor, single point]"
17,CC(=O)Oc1cccc(NC(=O)c2cccc(C(=O)Nc3cccc(OC(C)=O)c3)c2)c1,"inconclusive: 23.9 µM [inhibitor, partial curve, poor fit]"
18,CC(=O)N=c1sc2cc(C)ccc2n1C,"inconclusive: 26.9 µM [inhibitor, single point]"
19,Clc1cccc(-c2ccc(CNCc3ccccn3)o2)c1,"inconclusive: 21.3 µM [inhibitor, single point]"
20,CCN(CC)S(=O)(=O)c1nnc(NC(=O)COc2ccc(Cl)cc2)s1,active: 2.39 µM
21,Cc1ccc(-n2ncc3c(=O)n(CC(=O)N4CCN(C(=O)c5ccco5)CC4)cnc32)cc1,inactive
22,c1ccc2sc(Cc3nnc4n3CCCCC4)nc2c1,"inconclusive: 37.9 µM [inhibitor, single point]"
23,Cc1ccc(-c2nc(-c3ccncc3)no2)c(Cl)c1,active: 0.478 µM
